Laboratory results reported in the supplement of paper PMC10320760.
This is a noisy data set.

B1: Ydj1; a variant is named by its letters at X, in order (parent)
chain: MVKETKFYDILGVPVTATDVEIKKAYRKCALKYHPDKNPSEEAAEKFKEASAAYEILSDPEKRDIYDQFGEDGLSGAGGAGGFPGGGFGFGDDIFSQFFGAGGAQRPRGPQRGKDIKHEISASLEELYKGRTAKLALNKQILCKECEGRGGKKGAVKKCTSCNGQGIKFVTRQMGPMIQRFQTECDVCHGTGDIIDPKDRCKSCNGKKVENERKILEVHVEPGMKDGQRIVFKGEADQAPDVIPGDVVFIVSERPHKSFKRDGDDLVYEAEIDLLTAIAGGEFALEHVSGDWLKVGIVPGEVIAPGMRKVIEGKGMPIPKYGGYGNLIIKFTIKFPENHFTSEENLKKLEEILPPRIVPAIPKKATVDECVLADFDPAKYNRTRASRGGANYDSDEEEQGGEGVQCXXX

Variants of: B1
Assay: enrichment factor, frequency at 37 °C / frequency at 25 °C (thermotolerance selection) (ratio); higher = more growth at 37 °C, higher likelihood of farnesylation
Settings: with Saccharomyces cerevisiae ydj1Δ (yWS304); selective temperature 37 °C; reference temperature 25 °C

Row | Variant | enrichment factor
1 | CQW | 0.293
2 | CQK | 0.566
3 | CQL | 1.25
4 | CQV | 0.662
5 | CQR | 0.165
6 | CQI | 0.405
7 | CQS | 2.22
8 | CQN | 1.69
9 | CQP | 0.814
10 | CQY | 1.68
11 | CQM | 1.11
12 | CQQ | 1.52
13 | CQT | 1.32
14 | RQW | 1.67
15 | RQL | 1.47
16 | RQI | 1.36
17 | RQP | 0.153
18 | RQQ | 1.57
19 | RQN | 1.6
20 | RQT | 1.85
21 | RQK | 0.38
22 | RQS | 1.9
23 | RQY | 1.77
24 | RQR | 0.162

Row | Variant | enrichment factor
25 | RQV | 1.92
26 | RQM | 1.86
27 | QRA | 0.14
28 | QRD | 0.142
29 | QRE | 0.14
30 | QRC | 0.129
31 | HRA | 0.223
32 | HRE | 0.126
33 | HRD | 0.112
34 | HRC | 0.562
35 | HRF | 0.26
36 | IRE | 0.137
37 | IRC | 0.0965
38 | IRD | 0.102
39 | IRA | 0.129
40 | KQK | 0.298
41 | KQS | 2.12
42 | KQR | 0.162
43 | KQY | 1.64
44 | KQN | 1.85
45 | KQW | 1.57
46 | KQL | 1.34
47 | KQP | 0.174
48 | KQV | 1.52

Row | Variant | enrichment factor
49 | KQT | 1.91
50 | KQQ | 1.63
51 | KQM | 1.87
52 | PRC | 0.192
53 | PRA | 0.108
54 | PRD | 0.167
55 | PRE | 0.146
56 | EQT | 1.25
57 | EQV | 1.44
58 | EQK | 0.165
59 | EQR | 0.161
60 | EQY | 1.57
61 | EQQ | 1.6
62 | EQN | 1.18
63 | EQS | 1.71
64 | EQL | 1.14
65 | EQP | 0.121
66 | EQM | 1.87
67 | EQW | 1.39
68 | NRE | 0.261
69 | NRD | 0.171
70 | NRA | 0.0799
71 | NRC | 0.22
72 | RRC | 0.136

Row | Variant | enrichment factor
73 | RRA | 0.204
74 | RRE | 0.153
75 | RRD | 0.111
76 | AQN | 1.49
77 | AQW | 1.54
78 | AQQ | 1.51
79 | AQS | 2.07
80 | AQP | 0.0937
81 | AQR | 0.245
82 | AQT | 1.73
83 | AQL | 1.94
84 | AQM | 1.73
85 | AQK | 0.627
86 | AQV | 1.6
87 | AQY | 2.06
88 | VRE | 0.085
89 | VRA | 0.128
90 | VRC | 0.162
91 | VRD | 0.129
92 | GQT | 1.73
93 | GQM | 1.17
94 | GQP | 0.134
95 | GQV | 1.64
96 | GQR | 0.139

Row | Variant | enrichment factor
97 | GQY | 1.14
98 | GQK | 0.121
99 | GQW | 0.454
100 | GQL | 0.546
101 | GQN | 1.49
102 | GQS | 1.71
103 | GQQ | 1.53
104 | HQS | 2.09
105 | HQL | 1.88
106 | HQT | 2.08
107 | HQK | 0.132
108 | HQQ | 1.72
109 | HQP | 1.24
110 | HQM | 1.49
111 | HQR | 0.141
112 | HQN | 1.64
113 | HQW | 1.35
114 | HQV | 2.48
115 | HQY | 2.67
116 | MQM | 2.4
117 | MQR | 0.127
118 | MQV | 1.93
119 | MQW | 1.32
120 | MQN | 1.48

Row | Variant | enrichment factor
121 | MQS | 1.7
122 | MQK | 0.126
123 | MQL | 1.58
124 | MQQ | 1.6
125 | MQP | 0.137
126 | MQY | 1.91
127 | MQT | 1.88
128 | IQT | 2.12
129 | IQL | 2.84
130 | IQV | 2.45
131 | IQY | 1.55
132 | IQW | 1.1
133 | IQS | 1.46
134 | IQQ | 1.41
135 | IQP | 0.11
136 | IQM | 1.81
137 | IQK | 1.19
138 | IQR | 0.132
139 | IQN | 1.34
140 | KRD | 0.176
141 | KRA | 0.072
142 | KRC | 0.167
143 | KRE | 0.207
144 | CRC | 0.182

Row | Variant | enrichment factor
145 | CRD | 0.156
146 | CRA | 0.118
147 | CRE | 0.184
148 | NQT | 1.98
149 | NQS | 2.01
150 | NQK | 0.233
151 | NQP | 0.183
152 | NQW | 1.28
153 | NQY | 2.02
154 | NQR | 0.162
155 | NQN | 1.57
156 | NQM | 1.45
157 | NQV | 1.73
158 | NQQ | 1.71
159 | NQL | 1.5
160 | DRD | 0.16
161 | DRF | 0.204
162 | DRE | 0.162
163 | DRC | 0.121
164 | DRA | 0.216
165 | VQS | 1.69
166 | VQR | 0.135
167 | VQI | 2.9
